Measured values as given in paper PMC4336329 (PLoS ONE, 2015).
Out of some 310,000 compounds screened, about 2,200 (0.71%) showed an effect of 50% or more. Effects have a minus sign here. This is one part of the list.

target: human ether-à-go-go-related gene (hERG) potassium channel (human, UniProt Q12809); assay: primary screen, population patch clamp on CHO cells stably expressing hERG
Sequence (Q12809 whole entry, looked up): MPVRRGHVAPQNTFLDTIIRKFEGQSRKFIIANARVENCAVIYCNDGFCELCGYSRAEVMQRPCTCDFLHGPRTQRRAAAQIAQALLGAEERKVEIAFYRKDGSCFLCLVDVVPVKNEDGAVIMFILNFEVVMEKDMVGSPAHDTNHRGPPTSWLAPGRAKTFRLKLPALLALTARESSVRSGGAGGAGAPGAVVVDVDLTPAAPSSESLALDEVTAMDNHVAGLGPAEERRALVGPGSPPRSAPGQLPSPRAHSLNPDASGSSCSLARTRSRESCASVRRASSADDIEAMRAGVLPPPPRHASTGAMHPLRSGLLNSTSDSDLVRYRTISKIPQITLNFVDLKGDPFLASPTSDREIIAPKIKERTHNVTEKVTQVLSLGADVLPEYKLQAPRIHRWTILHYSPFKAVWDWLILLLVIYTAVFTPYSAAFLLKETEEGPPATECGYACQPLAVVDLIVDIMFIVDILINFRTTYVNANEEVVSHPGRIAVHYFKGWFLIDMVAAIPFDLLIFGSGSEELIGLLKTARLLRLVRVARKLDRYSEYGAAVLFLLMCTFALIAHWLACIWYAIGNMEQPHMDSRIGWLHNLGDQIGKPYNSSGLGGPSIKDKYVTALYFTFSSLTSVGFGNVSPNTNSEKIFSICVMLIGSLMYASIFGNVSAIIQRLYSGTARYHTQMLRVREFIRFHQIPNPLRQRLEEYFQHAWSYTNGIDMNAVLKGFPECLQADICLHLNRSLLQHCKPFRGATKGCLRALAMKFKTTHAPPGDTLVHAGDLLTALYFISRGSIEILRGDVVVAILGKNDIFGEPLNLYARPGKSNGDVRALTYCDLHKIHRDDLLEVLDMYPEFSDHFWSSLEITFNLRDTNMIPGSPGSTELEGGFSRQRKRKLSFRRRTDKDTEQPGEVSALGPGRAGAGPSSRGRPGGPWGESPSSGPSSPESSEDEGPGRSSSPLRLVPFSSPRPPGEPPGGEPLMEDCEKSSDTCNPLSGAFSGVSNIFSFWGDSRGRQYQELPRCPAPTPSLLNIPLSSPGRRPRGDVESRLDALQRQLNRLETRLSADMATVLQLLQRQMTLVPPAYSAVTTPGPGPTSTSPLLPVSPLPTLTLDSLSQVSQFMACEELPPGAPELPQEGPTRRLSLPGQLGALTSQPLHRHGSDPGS

SMILES | hERG current change (%, negative = inhibition) at 1uM [%]
COc1cc(S(=O)(=O)N2CCCCC2)ccc1NC(=O)c1ccc(F)cc1 | -19.8
CC(OC(=O)c1cc(=O)[nH]c2ccccc12)C(=O)c1ccccc1 (stereo not drawn) | -8.39
CN1CCN(Cc2c(O)ccc3c(=O)c(Oc4ccccc4Cl)c(C(F)(F)F)oc23)CC1 | 6.95
Cc1cc(C)cc(NC(=O)CN(c2ccc(F)cc2)S(C)(=O)=O)c1 | 12.9
O=C(c1cc(Cl)ccc1Cl)N1CCOCC1 | 14.6
COC(CNC(=O)C1CCCN(S(=O)(=O)c2ccc3c(c2)oc(=O)n3C)C1)OC (stereo not drawn) | 14.1
Cc1c(NS(=O)(=O)c2ccccc2)c(=O)n(-c2ccccc2)n1C | 20.8
COc1ccc(CCCc2nnc(SCc3nc4ccccc4c(=O)[nH]3)n2C)c(C)c1 | -10.2
CCc1cccc(C)c1NC(=O)COC(=O)CNC(=O)c1cccs1 | 15.1
O=C(O)c1ccc(Nc2nc(-c3ccc([N+](=O)[O-])cc3)nc3ccccc23)cc1 | 14.5
O=C(COC(=O)CSc1ccc([N+](=O)[O-])cc1)NCCC1=CCCCC1 | 10.7
Cn1nc([N+](=O)[O-])nc1Oc1ccccc1N | 9.33
CCn1cc(/C=N/N=C2\CCC3C4CCc5cc(O)ccc5C4CC[C@]23C)c(C)n1 (stereo partly drawn) | 0.859
COc1ccc(CNC(=O)CN(c2ccc(C(C)C)cc2)S(=O)(=O)c2c(C)noc2C)cc1 | 19.9
Fc1ccc(NC(=S)NCc2ccccc2)cc1 | 10.4
Cc1ccccc1N1CCN(C(=S)c2ccc(-c3cccc([N+](=O)[O-])c3)o2)CC1 | 14.8
COc1cccc2sc(N(CCCN(C)C)C(=O)COc3ccc(Cl)cc3)nc12.Cl | -68.9
Cc1cc(-c2ccccc2)c(C#N)c(SCC(N)=O)n1 | 4.39
O=c1c2ccccc2nc2n1C(CSc1ccc(Br)cc1)CN2 (stereo not drawn) | 2.38
Fc1ccc(-n2nnc(-c3ccccc3Br)n2)cc1 | 8.84
Cl.NCCc1ccc(OCc2ccccc2)c(OCc2ccccc2)c1 | 4.25
COc1cc(OC)c(C(=O)Nc2cccc3ccccc23)cc1OC | 15.7
CCc1noc(C)c1C(=O)N1CCN(S(=O)(=O)c2c(C)c(C)cc(C)c2C)CC1 | 8.76

SMILES | hERG current change (%, negative = inhibition) at 1uM [%]
COCc1ccc(C(=O)N2CCCCC2C(=O)Nc2ccc(-n3nc(C)cc3C)cc2)o1 (stereo not drawn) | 9.86
Cn1c(N)c(C(=O)COC(=O)/C=C/c2ccc(OC(F)F)cc2)c(=O)n(C)c1=O | 20.4
CCOC(=O)c1ccc(NC(=O)C2CC3CCC2C3)cc1 (stereo not drawn) | 8.73
CN(C(=O)COC(=O)c1ccccc1NC(=O)c1ccco1)C1CCS(=O)(=O)C1 (stereo not drawn) | -6.78
Cc1ccc(CSCCNC(=O)CN2C(=O)c3ccccc3S2(=O)=O)cc1 | 8.76
CC(C)c1[nH]nc2c1C1(CCN(Cc3ccccc3)CC1)C(C#N)=C(N)O2 | -14
COc1cc(S(=O)(=O)N2CCN3CCCC3C2)ccc1-n1cnnn1 (stereo not drawn) | 8.83
Cc1nn(-c2ccccc2)c(=O)c2ccccc12 | 15.6
CCn1ccnc1CN1CCc2c([nH]c3ccccc23)C1C1CCCCC1 (stereo not drawn) | 4.47
CCO[C@H]1OC(C(=O)N2CCN(C)CC2)=C[C@@H](C2CC2)[C@@H]1CCCO | 15.5
Cc1c(NC(=O)c2ccc(N3CCCC3)c([N+](=O)[O-])c2)cccc1-c1nc2ccccc2s1 | 8.95
CCNC(=S)N1CCn2cccc2C1c1cccnc1 (stereo not drawn) | 4.02
CC(=O)OC1N=C(c2ccc(Cl)cc2)c2cc(Br)ccc2NC1=O (stereo not drawn) | 0.259
O=C(C1CCN(c2nnc(-n3cccc3)s2)CC1)N1CCCCC1 | 7.57
CCOCCCNS(=O)(=O)c1ccc(NC(=O)Cc2c(F)cccc2Cl)cc1 | 9.48
COc1cccc(CN=CC2=C(O)CC(C)(C)CC2=O)c1OC | 4.98
Cc1ccc(S(=O)(=O)Nc2cccc3cccnc23)c([N+](=O)[O-])c1 | 12.5
CC(NC(=O)C(=O)N/N=C/c1ccccc1)c1ccccc1 (stereo not drawn) | 15.4
CC(NC(=O)COC(=O)c1ccc2c(c1)OCO2)c1ccccc1 (stereo not drawn) | 8.7
Cc1ccc(C)c(SCC(=O)OCC(=O)NCc2ccccc2)c1 | 9.47
CCC(C)NC(=O)C1c2cc(OC)c(OC)cc2C(=O)N(C)C1c1ccc(OC)cc1 (stereo not drawn) | 1.95
O=C(Nc1csnn1)c1csnn1 | 14.4
